From article PMC9911399, “Two distinct binding modes provide the RNA-binding protein RbFox with extraordinary sequence specificity”
Changes are numbered by the printed parent chain; changes in the protein carry UniProt numbers. The list shows a part of the results.

T1: RBFOX1 RRM RbFoxmut (Fox-RRM*) (Homo sapiens, UniProt Q9NWB1 109-208, R118D;E147R;N151S;E152T)
T1 sequence: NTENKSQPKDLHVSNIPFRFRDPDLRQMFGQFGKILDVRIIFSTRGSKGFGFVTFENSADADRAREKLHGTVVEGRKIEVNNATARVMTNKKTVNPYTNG

B1: GUAUUAC (DNA:RNA)
RNA: GGGAGACCGGAAUUCAGAUUGUCCGUAUUACUUAAAUCCCGUCGUAGCCACCA
DNA 1: CAATCTGAATTCCGGTCTCCC
DNA 2: TGGTGGCTACGACGGGATT
B2: GAACACG (DNA:RNA)
RNA: B1 RNA with U26A, U28C, U29A, A30C, C31G
DNA 1: CAATCTGAATTCCGGTCTCCC
DNA 2: TGGTGGCTACGACGGGATT
B3: UGAAAAC (DNA:RNA)
RNA: B1 RNA with G25U, U26G, U28A, U29A
DNA 1: CAATCTGAATTCCGGTCTCCC
DNA 2: TGGTGGCTACGACGGGATT
B4: CUGAACG (DNA:RNA)
RNA: B1 RNA with G25C, A27G, U28A, U29A, A30C, C31G
DNA 1: CAATCTGAATTCCGGTCTCCC
DNA 2: TGGTGGCTACGACGGGATT
B5: UGCUGAG (DNA:RNA)
RNA: B1 RNA with G25U, U26G, A27C, U29G, C31G
DNA 1: CAATCTGAATTCCGGTCTCCC
DNA 2: TGGTGGCTACGACGGGATT
B6: AUCUUCA (DNA:RNA)
RNA: B1 RNA with G25A, A27C, A30C, C31A
DNA 1: CAATCTGAATTCCGGTCTCCC
DNA 2: TGGTGGCTACGACGGGATT
B7: UGAGCAU (DNA:RNA)
RNA: B1 RNA with G25U, U26G, U28G, U29C, C31U
DNA 1: CAATCTGAATTCCGGTCTCCC
DNA 2: TGGTGGCTACGACGGGATT
B8: CUUUGAA (DNA:RNA)
RNA: B1 RNA with G25C, A27U, U29G, C31A
DNA 1: CAATCTGAATTCCGGTCTCCC
DNA 2: TGGTGGCTACGACGGGATT
B9: CACAUAU (DNA:RNA)
RNA: B1 RNA with G25C, U26A, A27C, U28A, C31U
DNA 1: CAATCTGAATTCCGGTCTCCC
DNA 2: TGGTGGCTACGACGGGATT
B10: UCAGUGG (DNA:RNA)
RNA: B1 RNA with G25U, U26C, U28G, A30G, C31G
DNA 1: CAATCTGAATTCCGGTCTCCC
DNA 2: TGGTGGCTACGACGGGATT
B11: GCGUUAA (DNA:RNA)
RNA: B1 RNA with U26C, A27G, C31A
DNA 1: CAATCTGAATTCCGGTCTCCC
DNA 2: TGGTGGCTACGACGGGATT
B12: AUCUUGA (DNA:RNA)
RNA: B1 RNA with G25A, A27C, A30G, C31A
DNA 1: CAATCTGAATTCCGGTCTCCC
DNA 2: TGGTGGCTACGACGGGATT
B13: UAGGCAC (DNA:RNA)
RNA: B1 RNA with G25U, U26A, A27G, U28G, U29C
DNA 1: CAATCTGAATTCCGGTCTCCC
DNA 2: TGGTGGCTACGACGGGATT
B14: CAAGCCG (DNA:RNA)
RNA: B1 RNA with G25C, U26A, U28G, U29C, A30C, C31G
DNA 1: CAATCTGAATTCCGGTCTCCC
DNA 2: TGGTGGCTACGACGGGATT
B15: UUCUGGA (DNA:RNA)
RNA: B1 RNA with G25U, A27C, U29G, A30G, C31A
DNA 1: CAATCTGAATTCCGGTCTCCC
DNA 2: TGGTGGCTACGACGGGATT
B16: AGACUCA (DNA:RNA)
RNA: B1 RNA with G25A, U26G, U28C, A30C, C31A
DNA 1: CAATCTGAATTCCGGTCTCCC
DNA 2: TGGTGGCTACGACGGGATT
B17: AUGCUUU (DNA:RNA)
RNA: B1 RNA with G25A, A27G, U28C, A30U, C31U
DNA 1: CAATCTGAATTCCGGTCTCCC
DNA 2: TGGTGGCTACGACGGGATT
B18: CACGACU (DNA:RNA)
RNA: GGGAGACCGGAAUUCAGAUUGUCCCACGACUUUAAAUCCCGUCGUAGCCACCA
DNA 1: CAATCTGAATTCCGGTCTCCC
DNA 2: TGGTGGCTACGACGGGATT
B19: CUCGUGC (DNA:RNA)
RNA: B18 RNA with A26U, A29U, C30G, U31C
DNA 1: CAATCTGAATTCCGGTCTCCC
DNA 2: TGGTGGCTACGACGGGATT
B20: CGAGAAU (DNA:RNA)
RNA: B18 RNA with A26G, C27A, C30A
DNA 1: CAATCTGAATTCCGGTCTCCC
DNA 2: TGGTGGCTACGACGGGATT
B21: ACAUGUA (DNA:RNA)
RNA: B1 RNA with G25A, U26C, U29G, A30U, C31A
DNA 1: CAATCTGAATTCCGGTCTCCC
DNA 2: TGGTGGCTACGACGGGATT
B22: CUACUGG (DNA:RNA)
RNA: B1 RNA with G25C, U28C, A30G, C31G
DNA 1: CAATCTGAATTCCGGTCTCCC
DNA 2: TGGTGGCTACGACGGGATT
B23: UGAACUC (DNA:RNA)
RNA: B1 RNA with G25U, U26G, U28A, U29C, A30U
DNA 1: CAATCTGAATTCCGGTCTCCC
DNA 2: TGGTGGCTACGACGGGATT
B24: UUAGAUA (DNA:RNA)
RNA: B18 RNA with C25U, A26U, C27A, C30U, U31A
DNA 1: CAATCTGAATTCCGGTCTCCC
DNA 2: TGGTGGCTACGACGGGATT
B25: GUAGUCU (DNA:RNA)
RNA: B1 RNA with U28G, A30C, C31U
DNA 1: CAATCTGAATTCCGGTCTCCC
DNA 2: TGGTGGCTACGACGGGATT
B26: UCUCUAC (DNA:RNA)
RNA: B1 RNA with G25U, U26C, A27U, U28C
DNA 1: CAATCTGAATTCCGGTCTCCC
DNA 2: TGGTGGCTACGACGGGATT
B27: CCGAUAA (DNA:RNA)
RNA: B1 RNA with G25C, U26C, A27G, U28A, C31A
DNA 1: CAATCTGAATTCCGGTCTCCC
DNA 2: TGGTGGCTACGACGGGATT
B28: UAAUCUU (DNA:RNA)
RNA: B18 RNA with C25U, C27A, G28U, A29C, C30U
DNA 1: CAATCTGAATTCCGGTCTCCC
DNA 2: TGGTGGCTACGACGGGATT
B29: AUUGAGU (DNA:RNA)
RNA: B18 RNA with C25A, A26U, C27U, C30G
DNA 1: CAATCTGAATTCCGGTCTCCC
DNA 2: TGGTGGCTACGACGGGATT
B30: CGAACUA (DNA:RNA)
RNA: B18 RNA with A26G, C27A, G28A, A29C, C30U, U31A
DNA 1: CAATCTGAATTCCGGTCTCCC
DNA 2: TGGTGGCTACGACGGGATT
B31: UUCUGGU (DNA:RNA)
RNA: B18 RNA with C25U, A26U, G28U, A29G, C30G
DNA 1: CAATCTGAATTCCGGTCTCCC
DNA 2: TGGTGGCTACGACGGGATT

What follows are binders tested against T1, RBFOX1 RRM RbFoxmut (Fox-RRM*) (assay: EMSA; HiTS-Eq, 1 nM pool, 10 min; buffer printed only for the single-RNA assays: 10 mM Tris pH 7.5, 150 mM NaCl, 3.4 mM EDTA, 0.001% NP-40, 30 C). Conditions: tags: His6 N-terminal (pET28a); label: 5' 32P.
Procedure, shortened: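 A pool of RNA with 7 randomized nucleotides, 5′-radiolabelled and with DNA-annealed flanks, was equilibrated at 1 nM for 10 min in 50 µL with purified RbFox RRM, wild type or mutant, across increasing protein concentrations. Free RNA was separated by 8% native PAGE, excised, reverse-transcribed, barcoded by PCR and sequenced. Relative association constants were obtained from read-count changes of each RNA species versus the control reaction and normalised to the cognate motif.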

In order of rising binding signal:
1. B23  0.0423 KA relative to UGCAUGU
2. B15  0.0449 KA relative to UGCAUGU
3. B28  0.0482 KA relative to UGCAUGU
4. B27  0.0612 KA relative to UGCAUGU
5. B3  0.0648 KA relative to UGCAUGU
6. B31  0.0775 KA relative to UGCAUGU
7. B22  0.0791 KA relative to UGCAUGU
8. B25  0.0795 KA relative to UGCAUGU
9. B13  0.081 KA relative to UGCAUGU
10. B18  0.0872 KA relative to UGCAUGU
11. B17  0.0895 KA relative to UGCAUGU
12. B20  0.0898 KA relative to UGCAUGU
13. B11  0.0941 KA relative to UGCAUGU
14. B8  0.0969 KA relative to UGCAUGU
15. B24  0.0995 KA relative to UGCAUGU
16. B26  0.1 KA relative to UGCAUGU
17. B10  0.101 KA relative to UGCAUGU
18. B5  0.102 KA relative to UGCAUGU
19. B16  0.102 KA relative to UGCAUGU
20. B30  0.104 KA relative to UGCAUGU
21. B14  0.105 KA relative to UGCAUGU
22. B2  0.107 KA relative to UGCAUGU
23. B7  0.114 KA relative to UGCAUGU
24. B9  0.118 KA relative to UGCAUGU
25. B6  0.124 KA relative to UGCAUGU
26. B1  0.141 KA relative to UGCAUGU
27. B12  0.15 KA relative to UGCAUGU
28. B19  0.155 KA relative to UGCAUGU
29. B29  0.166 KA relative to UGCAUGU
30. B21  0.2 KA relative to UGCAUGU
31. B4  0.33 KA relative to UGCAUGU
